Laboratory results published in the RNAGym collection of RNA variant scans (doi:10.7554/elife.90254).
Read counts are not given, so values of variants with three or more changes are uncertain.

B1: LINE1-mini (parent)
chain: GGCAGAGCUCAACACAGCGUGGCAAAGUGGCUGUGGCUAGACUGCC

Variants of: B1
Test: self-cleavage, relative activity (ratio to wild type); higher = more cleavage; in vitro, sequencing; the parent is a self-cleaving ribozyme

Variant | self-cleavage
GGCAGGGCUCAACACAGCGUGGCAAAGUGGCUGUGGAUAGACUUCC [A6G C37A G44U] | 0.05
GUCAGAGUUCAACAUAGCGUGGCAAAGUGGAUGUGGAAAGACUGCC [G2U C8U C15U C31A C37A U38A] | 0.1
UGCAGAGCUCAACACAGCGUCGCAACGUGGCUGUGGCUAGACUACC [G1U G21C A26C G44A] | 0.1
GGCAGAGCUUAACACAGCUUGGCAUAACGGGUGUGGCUAGACUGCC [C10U G19U A25U G27A U28C C31G] | 0.45
GGCAGAGCUCAACAUAGCGUGGCAAAGUGGUUGUGGCUAUACUGCC [C15U C31U G40U] | 0.07
GGCAGAGCUCCACACAGCGUGCCAUAGUGUCUGUGGCUAGACUGCC [A11C G22C A25U G30U] | 0.03
GGAAGAGCUCAACACAGCUUGGCAAAGUGGCUGUGGCUUGACUGCU [C3A G19U A39U C46U] | 0.01
AGCAGUGCUCAACACAGCGUAGCAAAGUGGCUGUGGCUAGACUGCC [G1A A6U G21A] | 0.5
GGUAGAGCUCUACACAGCGUGGCAAAGUGGCUGUGGGUAGACUGCC [C3U A11U C37G] | 0.04
GGCAGAGCUCAUCACAGCGUGUCUAAGUGGCUGUGGCUAGACUGCC [A12U G22U A24U] | 0.84
GGCAGAGGUCAACACAGCGUGGCAGAGUGGCUGUGGCUAGACGGCC [C8G A25G U43G] | 0.28
CGCGGAGCUUAACACAGCGUGGCAAAGUGGCUGUGGCUAGACUGCC [G1C A4G C10U] | 0.07
GGCAGGGCUCAACAUAGCGUGGCAAAUUGGCUGUGACUAGACUGCC [A6G C15U G27U G36A] | 0.04
CACAGAGCUCAACACAGCGUGGCAAAGUGGCUGUGGCUAAACUGCC [G1C G2A G40A] | 0.06
GGCAGAGCUCAACACAGCGUGGCAAAAAGGCUGCGGCUAGACUGCC [G27A U28A U34C] | 0.16
GGCAGAGCUCAACACAGCGUGCCAAAGUGGCUGUGUCUAGACUGUC [G22C G36U C45U] | 0.06
GGCAGAGCUCAUCACAGCGUGGCAAAGUGGCAUUGGCUAGACUACC [A12U U32A G33U G44A] | 0.03
CGAAUAGCUCAACACAGCGUGGCAAAGUGGCUGUGGCUAGACUGCC [G1C C3A G5U] | 0.26
GGCAGAGCUCAACACAGAGUGUCAAAGUGGCUGUGGCUAGCCUGCC [C18A G22U A41C] | 0.01

Variant | self-cleavage
GGCAGAGUUCAACACAGCGUGGUAAAGUGGCUGUGCAUAGACUGCC [C8U C23U G36C C37A] | 0.27
GGCAGAGGUAAACACAGCGUGGCAACGUGGAUGUGGCAAGACUGCC [C8G C10A A26C C31A U38A] | 0.01
GGCAGAGCUAAACAGAGCGUGGCAAAGUGGCUGUAGCUAGAAUGCC [C10A C15G G35A C42A] | 0
GGCAGAGCUCAACACAGCGUGGCAAACUGACUGUGGCUAGCCCGCC [G27C G30A A41C U43C] | 0.03
GGCAGUGCUCAACACAGCGUGGCAUAGUUGAUGUGGCUAGACUGCC [A6U A25U G29U C31A] | 0.1
GGCAGAGCUCAACACAGCGUGGCAAAGUGGCUUUGCCUCGACUGCC [G33U G36C A39C] | 0.01
GGCAGAGCUGAACCCAGCGUGGCAAAGUUGCUGUGGCUAGACUGCC [C10G A14C G29U] | 0.04
GGAAGAGCUUAACACAGCGUGGCAAAGUGGCUGUGGCUAGGCUGCC [C3A C10U A41G] | 0.03
GCCAGAGAUCAACACAGCAUGGCAAAGUUGCUUUGGCUAGACUGCA [G2C C8A G19A G29U G33U C46A] | 0.04
GGCAGAGCUCAACACAGCGAGGCAAGGUGGCUCCGGCUAGACUGUC [U20A A26G G33C U34C C45U] | 0.04
GGCUCAGCUCAACACAGCGUGGCAAAGUGGCUGGGGCUAGACUGCC [A4U G5C U34G] | 0.12
GGCCGAGCUCAACACAGCGUAGCAAAGUGGCCGUGGCUAGACAGCC [A4C G21A U32C U43A] | 0.07
GGCAGAGCUCAACGCAGCGUGGCAAAGGGGCUGUAGCUAGACUGCC [A14G U28G G35A] | 0.12
GGCAGAGCUCAACACGGCGUUGCAAAUUGGCUGUGGCUAGACUGCC [A16G G21U G27U] | 0.78
GGCAGAACUCAACACAGCGUGGCAAAGUAGAUGUGGCUAGAAUGCC [G7A G29A C31A C42A] | 0.28
GGCUGAGCUCAACACAGCGUAGGAAAGUGUCUGUGGCUAGACUUCC [A4U G21A C23G G30U G44U] | 0.03
GGUAGAGCUCAAGACAGCGUAGCAAAGUGGCUGAGGCUAGAAUGCC [C3U C13G G21A U34A C42A] | 0.1
GGCAGAGCUCAACACAGCGUGGCGAAGUGGCUGUGACUAUACUCCC [A24G G36A G40U G44C] | 0.03
GGAAGAGCUCAACACAUCGUGGCAAAGUGGCUGUGGCUAUACUGCC [C3A G17U G40U] | 0.23

Variant | self-cleavage
GGCAAACCUCAACACAGCGUGGCAAAGUUGCUGUGGCUAGUCUGAC [G5A G7C G29U A41U C45A] | 0.07
GGCAGAGCUCUAAACAGCGUGGGAAAGUGGCUGUGGAUAGACUGCC [A11U C13A C23G C37A] | 0.04
GGCAGAGCUCAACACAGCGGGGCAAAGUGGCUAUGUUUCGACUGCC [U20G G33A G36U C37U A39C] | 0.03
GGCAGAGCUCAACACAGCGUGGCGAAGUGGCUGCGGCUACACUGCC [A24G U34C G40C] | 0.01
GGCAGAGCCCAACAGAGCGUGGCAAAUUGGCUGUGGCUAGACUGCC [U9C C15G G27U] | 0.01
GGCAGAGCUCAACACAGCGUGGCAAAGAGGCUGUGGCUUGAGUGCC [U28A A39U C42G] | 0
GACAGAGCUCAACACACCUUGGCAAAGUGGCCGUGGCUAGACUGCC [G2A G17C G19U U32C] | 0.05
GGCAGAGCCCCACACAGCGUAGCAAAGUGGCUGUGGCUAGACUGCC [U9C A11C G21A] | 0.02
GGCAGAGCUCAACACAGCGUAGGGAAGUGGCUGUGGCUAGACUGCC [G21A C23G A24G] | 1
GGCUGAGCUCAACCCAGCGGGGCAAAGUGGCUGUGGCUAGACUGCC [A4U A14C U20G] | 0.3
GGCAGAGCUCAACACAGUGUGGCAAGGUGGCUGUGUCUAGACUGCC [C18U A26G G36U] | 0.06
GGCAUAGAUUAACACAGCGUGGCAAAGUGGCUGUGCCUAGACUGCC [G5U C8A C10U G36C] | 0.05
GGCAGACCUCCACACAGCGUGGCAAAGUGAGUGUUGCUAGACUGCC [G7C A11C G30A C31G G35U] | 0.02
GGCAGAGCUCAAUCCAGCCUGGCAAAGUGGCUGUGGCUAGACUACC [C13U A14C G19C G44A] | 0.03
GGCAGAGCUCAACACCGCGUGGCAAAGUGGCUGUGGACAUACUGCC [A16C C37A U38C G40U] | 0.04
GGCAGAGCUCUACACAGCGUCGCAAAGUCGCUGCGGCUAGACUGAC [A11U G21C G29C U34C C45A] | 0.02
GCCAGAGCUCAACACAGCGUGGCAGAGUAGCUGUGGCAAAACUGCC [G2C A25G G29A U38A G40A] | 0.03
GCCAGAGCUCAACACAGCGUGGCAAAGUGGCUGUGGCCCGACUGGA [G2C U38C A39C C45G C46A] | 0.08
